# Data from the supplement of paper PMC9588766.
# Structures can show the parent of a compound that is named as a salt. ± gives the standard deviation of the averaged measurements. Whole data set: some 2,000 compounds, median “cell viability relative to DMSO control (compound alone)” near 0.98, cut for the lowest 2% near 0.23. The list shows a part of the results.
# Tested on: PDC-DUC18828
# Test: cell viability relative to DMSO control (compound alone) (fraction); PDC-DUC18828 is a patient-derived cholangiocarcinoma cell line; higher = less growth inhibition
# Conditions: 1 µM; 72 h
# Experimental: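 Selleck Bioactive library screen in the patient-derived FGFR2-G3BP2 fusion-positive ICC cell line PDC-DUC18828 (500 cells/well). Each compound was tested at 1 uM alone, in triplicate, for 72 h. Viability was read by CellTiter-Glo and normalised to plate DMSO controls.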
row,SMILES,cell viability
1,O=P1(NCCCl)OCCCN1CCCl (stereo not given) [Ifosfamide],0.976 ± 0.038
2,NC(=O)CN1CCCC1=O [Piracetam],0.962 ± 0.018
3,CN[C@@H]1C[C@H]2O[C@@](C)([C@@H]1OC)n1c3ccccc3c3c4c(c5c6ccccc6n2c5c31)C(=O)NC4 [Staurosporine],0.121 ± 0.0086
4,O=C(O[C@H]1C[N+]2(CCCOc3ccccc3)CCC1CC2)C(O)(c1cccs1)c1cccs1 [Aclidinium Bromide],1.03 ± 0.048
5,Cc1cc(SCc2sc(-c3ccc(C(F)(F)F)c(F)c3)nc2C)ccc1OCC(=O)O,1.04 ± 0.014
6,CC(C)(C)[C@]1(O)CC2OC(=O)CC23C(=O)OC2OC(=O)[C@H](O)C231 (stereo not given in full) [Bilobalide],0.866 ± 0.014
7,CC[C@@H]1/C=C/C=C/C[C@H](C)[C@H](O)[C@](C)(O)C(=O)[C@H](C)[C@@H](O)[C@H](C)C(=O)[C@H](C)[C@@H](O)[C@H](C)/C=C/C(=O)O[C@H]2[C@@H](C)[C@@H](CC1)O[C@@]1(CC[C@@H](C)[C@@H](C[C@H](C)O)O1)[C@@H]2C [Oligomycin A],0.74 ± 0.047
8,O=C(Oc1ccc([N+](=O)[O-])cc1)N1CCC(C(O)(c2ccc3c(c2)OCO3)c2ccc3c(c2)OCO3)CC1,1 ± 0.063
9,Cc1cccc(C)c1NC1=NCCCS1 [Xylazine HCl],1.05 ± 0.018
10,O=C1CCC[C@@H]2[C@H]3CCCN4CCC[C@@H](CN12)[C@@H]34 [(+)-Matrine],1.01 ± 0.031
11,Cc1c(Cl)c(OCC(=O)N2CCN(C)CC2)nc2sc(C(=O)NC3CC3)c(N)c12,1 ± 0.084
12,C[C@@H]1CC[C@H]2[C@@H](C)C(=O)O[C@@H]3O[C@@]4(C)CC[C@@H]1[C@]32OO4 [Artemisinin],0.974 ± 0.072
13,COc1ccc2c(c1)/C(=C/c1cnc[nH]1)C(=O)N2,0.933 ± 0.053
14,COc1ccc(C[C@H]2NC[C@H](O)[C@H]2OC(C)=O)cc1 [Anisomycin],0.234 ± 0.0077
15,NCCc1c[nH]c2ccc(O)cc12 [Serotonin HCl],0.967 ± 0.03
16,CCC(COC(=O)c1cc(OC)c(OC)c(OC)c1)(c1ccccc1)N(C)C (stereo not given) [Trimebutine],1.04 ± 0.036
17,C/C=C(\C)C(=O)N[C@@H](c1ccccc1)[C@@H](O)C(=O)O[C@H]1C[C@@]2(O)[C@@H](OC(=O)c3ccccc3)[C@@H]3[C@]4(OC(C)=O)CO[C@@H]4C[C@H](O)[C@@]3(C)C(=O)[C@H](OC(C)=O)C(=C1C)C2(C)C [Cephalomannine],0.24 ± 0.011
18,C[C@@]12N[C@@H](Cc3ccccc31)c1ccccc12 [(-)-MK 801 Maleate],1.04 ± 0.067
19,NCC(=O)O.[C-]#[O+].[C-]#[O+].[C-]#[O+].[Cl][Ru],0.981 ± 0.028
20,C#C[C@]1(O)C=C[C@H]2[C@@H]3CCC4=CC(=O)CC[C@@H]4[C@H]3CC[C@@]21CC [Gestodene],0.983 ± 0.016
